Molecules are shown by their SMILES. Counter-ions that a name gives are not always drawn. Some of the results follow. Most values come without repeats; read them as rough. Starred links: 1 amine or outer side, 2 acyl side, 3 side chain; linkers in the order of their positions; H or OH if unused. Non-standard residues stand in square brackets, D forms with d. Residues, ends and D or L forms follow the SMILES beside them. ξ: configuration not given here. Nip(3R) = O=C([C@@H]1CCCN([*:1])C1)[*:2]; Ile(3ξ) = CCC(C)[C@H](N)C(=O)O
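Further: monoclonal Beas-2B line stably carrying CMV promoter-driven AQP5-HiBiT, 5,000 cells per well in 384-well plates, lytic HiBiT plus LgBiT NanoLuc luminescence, FDA-approved drug library screen.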

This assay concerns Beas-2B AQP5-HiBiT reporter cells. In words: AQP5-HiBiT luminescence relative to vehicle (ratio to vehicle); higher = higher AQP5-HiBiT protein abundance. Particulars: 10 µM; 18 h.
Consider `CCN(CC)CC(=O)Nc1c(C)cccc1C` [Lidocaine hydrochloride], for which the AQP5-HiBiT luminescence amounted to 0.956. Under `COc1cc2c(cc1OC)CC(=O)N(CCCN(C)C[C@H]1Cc3cc(OC)c(OC)cc31)CC2` [Ivabradine hydrochloride] stands 0.734. Under `CCC(C)[C@H](NC(=O)[C@H](CCCN=C(N)N)NC(=O)[C@H](CCC(=O)O)NC(=O)[C@@H]1CCCN(C(=O)[C@H](CO)NC(=O)[C@@H](NC(=O)[C@@H](N)CCCN=C(N)N)C(C)CC)C1)C(=O)N[C@@H](CC(=O)O)C(=O)N[C@@H](C)C(=O)N[C@@H](CC(C)C)C(=O)O` (stereo partly drawn) [Risperidal] (H-R[Ile(3ξ)]S[Nip(3R)]ER[Ile(3ξ)]DAL-OH) stands 1.13; under `CC(C)NCC(O)COc1cccc2ccccc12` (stereo not given) [Propranolol hydrochloride], 0.926. Turning to `Cc1ccc(-c2cc(C(F)(F)F)nn2-c2ccc(S(N)(=O)=O)cc2)cc1` [Celecoxib], the AQP5-HiBiT luminescence came out at 0.969. For the molecule `OC(Cn1cncn1)(Cn1cncn1)c1ccc(F)cc1F` [Fluconazole], the AQP5-HiBiT luminescence amounted to 0.985. As for `CC1CCOC2Cn3cc(C(=O)NCc4ccc(F)cc4F)c(=O)c(O)c3C(=O)N12` (stereo not given), the AQP5-HiBiT luminescence is 0.751.

For `C[C@H]1c2cccc(O)c2C(=O)C2=C(O)[C@]3(O)C(=O)C(C(N)=O)=C(O)[C@@H](N(C)C)[C@@H]3[C@@H](O)[C@@H]21` [Doxycycline], the AQP5-HiBiT luminescence amounted to 0.551. Take `CN(C)[C@@H]1C(O)=C(C(N)=O)C(=O)[C@@]2(O)C(O)=C3C(=O)c4c(O)cccc4[C@@](C)(O)[C@H]3[C@H](O)[C@@H]12` [Oxytetracycline (Terramycin)]: the AQP5-HiBiT luminescence was determined as 0.974.

For `CCCCC[C@H](O)/C=C/[C@H]1[C@H](O)CC(=O)[C@@H]1CCCCCCC(=O)O` [Alprostadil], the AQP5-HiBiT luminescence was 0.938. `CO[C@H]1C[C@@H]2CC[C@@H](C)[C@@](O)(O2)C(=O)C(=O)N2CCCC[C@H]2C(=O)O[C@H]([C@H](C)C[C@@H]2CC[C@@H](O)[C@H](OC)C2)CC(=O)[C@H](C)/C=C(\C)[C@@H](O)[C@@H](OC)C(=O)[C@H](C)C[C@H](C)/C=C/C=C/C=C/1C` [Rapamycin (Sirolimus)]: the AQP5-HiBiT luminescence is 0.626.

For `Nc1ncn([C@H]2C[C@H](O)[C@@H](CO)O2)c(=O)n1` [Dacogen], the AQP5-HiBiT luminescence is 0.981. Take `CCCCN1CCCC[C@H]1C(=O)Nc1c(C)cccc1C` [Levobupivacaine]: the AQP5-HiBiT luminescence worked out at 0.784. As for `CCN(CC)C(=O)[C@@]1(c2ccccc2)C[C@H]1CN` [Levomilnacipran], the AQP5-HiBiT luminescence was determined as 1.02. For the molecule `CN[C@H]1CC[C@@H](c2ccc(Cl)c(Cl)c2)c2ccccc21` [Sertraline hydrochloride], the AQP5-HiBiT luminescence was 0.918. Regarding `Cc1ccc(NC(=O)C2(c3ccc4c(c3)OC(F)(F)O4)CC2)nc1-c1cccc(C(=O)O)c1` [Lumacaftor(VX 809)], the AQP5-HiBiT luminescence was found to be 1.03. On to `O=c1[nH]c(=O)n([C@H]2C[C@H](O)[C@@H](CO)O2)cc1F` [Floxuridine], for which the AQP5-HiBiT luminescence worked out at 0.583. Under `CC[C@H]1OC(=O)[C@H](C)[C@@H](O[C@H]2C[C@@](C)(OC)[C@@H](O)[C@H](C)O2)[C@H](C)[C@@H](O[C@@H]2O[C@H](C)C[C@H](N(C)C)[C@H]2O)[C@](C)(O)C[C@@H](C)C(=O)[C@H](C)[C@@H](O)[C@]1(C)O` [Erythromycin] stands 0.828; under `CC(=O)O[C@@]12CO[C@@H]1C[C@H](O)[C@@]1(C)C(=O)[C@H](O)C3=C(C)[C@@H](OC(=O)[C@H](O)[C@@H](NC(=O)OC(C)(C)C)c4ccccc4)C[C@@](O)([C@@H](OC(=O)c4ccccc4)[C@H]21)C3(C)C` [Docetaxel], 1.77; under `CCCCOCCOCCOCc1cc2c(cc1CCC)OCO2` [Piperonyl butoxide], 0.748.

Consider `CNCC(O)c1ccc(O)c(O)c1` (racemic) [DL-Adrenalin], for which the AQP5-HiBiT luminescence was found to be 0.706.

On to `Cc1ccc(Cl)c(Nc2ccccc2C(=O)O)c1Cl` [Meclofenamate Sodium], for which the AQP5-HiBiT luminescence turned out to be 0.992. Under `CCCCCNC(=N)N/N=C/c1c[nH]c2ccc(OC)cc12` [Tegaserod maleate] stands 1.36; under `CCNC(=O)CCC/C=C\C[C@@H]1[C@@H](/C=C/[C@@H](O)CCc2ccccc2)[C@H](O)C[C@@H]1O` [Bimatoprost], 0.632; under `O=C(C1CCCCC1)N1CC(=O)N2CCc3ccccc3C2C1` (stereo not given) [Praziquantel], 0.838. Under `N[C@H](C(=O)O)[C@H](O)c1ccc(O)c(O)c1` [Droxidopa] stands 1.04. With `CC[C@H](Nc1ncnc2[nH]cnc12)c1nc2cccc(F)c2c(=O)n1-c1ccccc1` [CAL-101 (Idelalisib, GS-1101)], the AQP5-HiBiT luminescence was 0.733. Under `C[C@]12CC[C@@H]3c4ccc(O)cc4CC[C@H]3[C@@H]1CC[C@@H]2O` [Estradiol] stands 0.911; under `CN1C2CCCC1CC(NC(=O)c1nn(C)c3ccccc13)C2` (stereo not given) [Granisetron hydrochloride], 1.16. Turning to `COc1cc(C(C)=O)ccc1OCCCN1CCC(c2noc3cc(F)ccc23)CC1` [Iloperidone], the AQP5-HiBiT luminescence came out at 1.03. Regarding `CCCCC(=O)O[C@]1(C(=O)CO)CC[C@H]2[C@@H]3CCC4=CC(=O)CC[C@]4(C)[C@H]3[C@@H](O)C[C@@]21C` [Hydrocortisone Valerate], the AQP5-HiBiT luminescence was determined as 0.653. For the molecule `CC1(C)S[C@@H]2[C@H](NC(=O)[C@H](N)c3ccc(O)cc3)C(=O)N2[C@H]1C(=O)O` [Amoxicillin], the AQP5-HiBiT luminescence came out at 0.578. Under `CN(C)c1ccc(O)c2c1C[C@H]1C[C@H]3[C@H](N(C)C)C(O)=C(C(N)=O)C(=O)[C@@]3(O)C(O)=C1C2=O` [Minocycline hydrochloride] stands 0.45.

As for `O=C(CCCN1CC=C(n2c(=O)[nH]c3ccccc32)CC1)c1ccc(F)cc1` [Droperidol], the AQP5-HiBiT luminescence came out at 1.15. In the case of `CN1CCC(=C2c3ccccc3CCn3c(C=O)cnc32)CC1` [Alcaftadine], the AQP5-HiBiT luminescence came to 0.762.

`O=C(c1ccc(OCCN2CCCCC2)cc1)c1c(-c2ccc(O)cc2)sc2cc(O)ccc12` [Raloxifene hydrochloride]: the AQP5-HiBiT luminescence stood at 1.99. On to `O=C(O)CCc1nc(-c2ccccc2)c(-c2ccccc2)o1` [Oxaprozin], for which the AQP5-HiBiT luminescence turned out to be 0.586. Under `C[C@]12CCC(=O)C=C1CC[C@@H]1[C@@H]2[C@@H](O)C[C@@]2(C)[C@H]1CC[C@]2(O)C(=O)CO` [Hydrocortisone] stands 0.819; under `CCOc1ccccc1OCCN[C@H](C)Cc1ccc(OC)c(S(N)(=O)=O)c1` [Tamsulosin hydrochloride], 1.12; under `CC(=O)Nc1nnc(S(N)(=O)=O)s1` [Acetazolamide], 0.684.

Source of the values: the supplement of paper PMC8821664.
